Experimental data reported in US6245917A, “Crystalline sodium phenytoin monohydrate” (Warner-Lambert Company, priority 1999, dated 2001).
Entries with a single value are a further part of the results.

Assay: DSC and TGA thermal analyses
Format: physicochemical
Conditions: DSC, nitrogen, 10° C./minute
Description: Differential scanning calorimetry (DSC) experiments were performed on a Dupont DSC 2000 and thermogravimetric analyses (TGA) were performed on a Dupont TGA 2000. Nitrogen was used as the purge gas and heating rates were 10° C./minute. Standards were run prior to sample analyses; Sn for DSC and calcium oxalate for TGA.
Both SPM and SPA were analyzed by x-ray powder diffraction (XRPD), infrared (IR) spectroscopy, solid-state nuclear magnetic resonance (SSNMR) spectroscopy, differential scanning calorimetry (DSC) and thermogravimetric analysis (TGA). The XRPD patterns of SPM and SPA are quite different and distinguishable. While the IR and SSNMR spectra of SPM and SPA are different, the differences are subtle. SPM and SPA behave quite differently on both DSC and TGA thermal analyses. SPA undergoes endothermic transitions at 364° C. and 409° C. that are accompanied by a weight loss of 72%.

Compound: O=C1NC(=O)C(c2ccccc2)(c2ccccc2)N1 [SPA, sodium phenytoin anhydrate, reference compound]
- endothermic transition temperature (first endothermic transition): 364 °C
- endothermic transition temperature (second endothermic transition): 409 °C
